Among all 43,000 compounds or so, about 200 (0.47%) were called active. Another 12% or so got no clear call; they are omitted. The call rests on the fitted dose curve; in most records, active means well fitted cell-killing curve with a large enough effect; inconclusive means small, poorly fitted or top-dose-only effect, or effect the other way; inactive means flat fitted curve, though single readings scatter. Some of the results follow.
Assay: Cell viability qHTS assay in S16 Pmp22-F2sN cells; further: nearly all actives have a fitted effect of over 65% in size
Conditions: S16 Pmp22-F2sN Schwann cells (luciferase reporters placed in the Pmp22 gene) viability, CellTiter-Glo, 24 h; series mostly up to 57.5 µM; activity change, negative = cytotoxicity: at the top concentration
Outline: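 Luminescence from CellTiter-Glo, read by CCD camera after a 15 min room-temperature incubation, served as the viability signal. Reporter Schwann cells (S16 Pmp22-F2sN) had been treated with pin-transferred compounds for 24 h at 37C.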
On the % scale 0 is the no-effect control and ±100 the full control effect; potency means the concentration at half of the fitted maximal effect.

| SMILES | activity change, negative = cytotoxicity | Potency |
| --- | --- | --- |
| COc1cccc(NC(=O)N(Cc2c[nH]c3ccccc23)C2CCCCCC2)c1 | inactive: -26.3% |  |
| CN(C(=O)c1cc2c(Cl)nc3ccccc3c2s1)c1cccc(C(F)(F)F)c1 | inactive: 7.52% |  |
| Cc1ccc(NC(=O)c2oc3ccc(S(=O)(=O)N4CCCCCC4)cc3c2C)c(C)c1 | inactive: 27.8% |  |
| COc1cccc(-c2noc(COc3ccc(C(C)(C)C)cc3)n2)c1 | inactive: -0.223% |  |
| CCC1CCc2nc3sc(C(=O)Nc4ccc(C)cc4C)c(N)c3cc2C1 (stereo unspecified) | inactive: 6.87% |  |
| COC(=O)Cn1ccc2cc(S(=O)(=O)N3CCCCCC3)ccc21 | inactive: -4.89% |  |
| CCOC(=O)N1CCC2(CC1)OC(=O)C(C)=C2C(=O)NCc1ccc(C)cc1 | inactive: 5.75% |  |
| CCNC(=O)c1ccc(CSc2nc3cccnc3n2Cc2ccc(OC)cc2)cc1 | inactive: -7.9% |  |
| COC(=O)c1ccc(NC(=O)Cn2c(-c3nonc3N)nc3ccccc32)cc1 | inactive: 20.8% |  |
| CCCc1cnc2c(c1SCC(=O)Nc1c(C)cc(C)cc1C)c(=O)n(C)c(=O)n2C | inactive: 0.587% |  |
| Cc1nn(CC(=O)N2CCC(C)CC2)c(=O)c2cc3occc3n12 | inactive: 10.4% |  |
| Cc1cccc(-c2nc(CN3CCCC(C(=O)NCc4ccc(Cl)cc4)C3)c(C)o2)c1 (stereo unspecified) | inactive: -4.31% |  |
| CCN(C(=O)CN1C(=O)COc2ccc(S(=O)(=O)N3CCOCC3)cc21)c1cccc(C)c1 | inactive: 8.31% |  |
| O=C(NCCc1csc(-c2cccc(F)c2)n1)c1ccccc1C(F)(F)F | inactive: 8.56% |  |
| N=c1n(CCN2CCCCC2)c2ccccc2n1CC(O)COc1ccccc1 (stereo unspecified) | inactive: -20.7% |  |
| COc1ccc(N2CCN(C(=O)CCC(=O)NNc3nc4ccccc4c4nc(C)nn34)CC2)cc1 | inactive: 0.641% |  |
| CSc1ccc(C(=O)Nc2ccc(-c3nc4ccccc4s3)c(O)c2)cc1 | inactive: 1.47% |  |
| CCC(=O)N1CCc2cc(S(=O)(=O)CCC(=O)N3CCN(c4cccc(Cl)c4)CC3)ccc21 | inactive: -3.19% |  |
| COc1ccc2c(c1)c1c(c(=O)n(Cc3ccccc3)c(=O)n1CC(=O)NCc1ccc(C)cc1)n2C | inactive: -6.55% |  |
| Cc1cc(C)cc(NC(=O)c2oc3ccc4c(c3c2C)C(=O)CC(C)(C)O4)c1 | inactive: 15.5% |  |
| COc1cc(OC)c(NC(=O)Cn2c(=O)cc(C)c3c(C)nn(-c4ccc(C)cc4)c32)cc1Cl | inactive: 11.5% |  |
| CSc1ccc(-c2nc3c(C)cccn3c2Nc2ccc3c(c2)OCCO3)cc1 | inactive: 0.254% |  |
| Cc1ccc(OCc2nnc(SCC(=O)Nc3ccccc3C(C)C)o2)cc1 | inactive: -1.5% |  |
| Cc1ccc(-c2c(C(=O)NCc3ccc(F)cc3)oc(=O)c3ccccc23)cc1 | inactive: 20.1% |  |

| SMILES | activity change, negative = cytotoxicity | Potency |
| --- | --- | --- |
| Cn1nc(C(=O)NCc2ccc(F)cc2)c2c1-c1ccccc1SC2 | inactive: -4.6% |  |
| CC1CCN(C(=O)CN2c3ccc(C(C)C)cc3-c3ccccc3S2(=O)=O)CC1 | inactive: -1.72% |  |
| Cc1cc(-c2ccccc2)n2nc(-c3cccc(Br)c3)cc2n1 | inactive: -1.12% |  |
| CSCCC(NS(=O)(=O)c1ccc2c(c1)oc(=O)n2C)C(=O)NCc1ccccc1 (stereo unspecified) | inactive: 11.7% |  |
| Cc1ccc2cccc(NC(=O)c3ccc(-c4cccc(Cl)c4Cl)o3)c2n1 | inactive: 1.31% |  |
| COc1ccc(CCCc2nnc(SCC(=O)Nc3ccc(F)cc3)o2)cc1C | inactive: 3.87% |  |
| CC(=O)c1cccc(NC(=O)c2oc(=O)c3ccccc3c2-c2ccccc2)c1 | inactive: 21.5% |  |
| CC(C)CN(CCNC(=O)c1cn(C)c2ccc(S(=O)(=O)N3CCOCC3)cc2c1=O)CC(C)C | inactive: -28.5% |  |
| O=C(Cn1cnc2onc(-c3ccc(F)cc3)c2c1=O)Nc1cccc(C(F)(F)F)c1 | inactive: -12.3% |  |
| CS(=O)(=O)N(CC(=O)NCCSCc1ccccc1)c1cc(C(F)(F)F)ccc1Cl | inactive: 2.71% |  |
| COc1ccc(NC(=O)CC2C(=O)N(c3ccccc3)C(=O)N2C2CCCCC2)cc1 (stereo unspecified) | inactive: 15.5% |  |
| CCOC(=O)c1nnn(CC(=O)Nc2cc(C)cc(C)c2)c1C(=O)OCC | inactive: 2.31% |  |
| CCOC(=O)c1ccc(NC(=O)c2nc(SC(C)C)ncc2Cl)cc1 | inactive: -9.27% |  |
| COc1ccc(CCNS(=O)(=O)c2ccc(N3CCCCS3(=O)=O)cc2)cc1OC | inactive: -5.12% |  |
| Cc1nc2c(-c3ccccc3)c(C)nn2c(C)c1CCC(=O)NCc1ccc(Cl)cc1 | inactive: 23.3% |  |
| Cc1ccc(CNC(=O)CCCN2C(=O)CCn3nc(-c4cn(C)c5ccccc45)cc32)cc1 | inactive: -3.96% |  |
| CCc1ccc(NC(=O)N2c3ccccc3Sc3ccccc32)cc1 | inactive: -0.346% |  |
| CCN(Cc1ccccc1)S(=O)(=O)c1ccc2c(c1)CCCN2C(C)=O | inactive: -7.49% |  |
| Cc1ccc(C)c(Cn2cnc3c(cnn3-c3ccc(F)cc3)c2=O)c1 | inactive: 5.12% |  |
| CCOc1ccc(CNC(=O)Cn2ccc3cc(S(=O)(=O)N4CCCCCC4)ccc32)cc1 | inactive: -12.9% |  |
| CCCCOC(=O)c1ccc(NC(=O)CC2NCCNC2=O)cc1 (stereo unspecified) | inactive: 6.63% |  |
| COCCCNC(=O)C1CCC(CNS(=O)(=O)c2ccc(OC)cc2)CC1 (stereo unspecified) | inactive: 6.05% |  |
| Cc1ccc(NC(=O)Cn2c(=O)ccc3cc(S(=O)(=O)N4CCC(C)CC4)ccc32)c(C)c1 | inactive: -1.13% |  |
| CCOC(=O)c1cc2c(=O)n3ccccc3nc2n(C)c1=NC(=O)c1c(-c2ccccc2Cl)noc1C | inactive: 10.9% |  |

| SMILES | activity change, negative = cytotoxicity | Potency |
| --- | --- | --- |
| COc1ccc(-n2cc(C(=O)Nc3cc(F)ccc3F)c3ccccc3c2=O)cc1 | inactive: -14.3% |  |
| COc1cc(-c2cc3n(C)c(C)c(CCC(=O)NCc4ccccc4)c(=O)n3n2)cc(OC)c1OC | inactive: 2.09% |  |
| COc1cccc(CNC(=O)C2CCN(Cc3cc4ccccc4n3Cc3ccc(C)cc3)CC2)c1 | inactive: -21.7% |  |
| CCN(CC)c1ccc(NC(=O)c2sc3ccccc3c2Cl)cc1 | inactive: 19.5% |  |
| COc1ccc(OC)c(-c2noc(N3CCN(c4cc(C)ccc4C)CC3)n2)c1 | inactive: 21.5% |  |
| CCOC(=O)Cc1ccc(NC(=O)Nc2cc3c(cc2N2CCCCC2)n(C)c(=O)n3C)cc1 | inactive: -0.952% |  |
| CCCn1c(=N)c(C(=O)NCc2cccnc2)cc2c(=O)n3ccccc3nc21 | inactive: 20.6% |  |
| COc1ccc(NC(=O)C(Cc2ccccc2)NS(=O)(=O)c2ccc3c(c2)CCN3C(C)=O)cc1 (stereo unspecified) | inactive: 0.704% |  |
| CCOC(=O)c1cc(OC(=O)c2ccc(OC)cc2)n(-c2ccccc2)n1 | inactive: 9.69% |  |
| Cc1ccc(C)c(CNC(=O)c2ccc3c(c2)nc2n3CCC(C)C2)c1 (stereo unspecified) | inactive: 3.91% |  |
| Cc1ccc(N(C)S(=O)(=O)c2nnc(NC(=O)CC(C)C)s2)cc1 | inactive: -0.587% |  |
| COc1ccc(Cl)cc1Nc1cc(C)nc2nc(-c3ccccc3C)nn12 | inactive: 12.2% |  |
| CN(C)c1ccc(C(CNC(=O)c2cccc(C(F)(F)F)c2)N2CCCC2)cc1 (stereo unspecified) | inactive: 1.68% |  |
| CCCSc1nc(-c2ccc(OC)cc2)cc(-c2ccccc2OC)c1C#N | inactive: 24.8% |  |
| Cc1cccc(C)c1NC(=O)CN(Cc1ccc(Br)cc1)S(=O)(=O)c1ccccc1 | inactive: -19% |  |
| COc1ccc(Br)cc1CNC(=O)c1cc(=O)[nH]c2ccc(S(=O)(=O)N3CCCCC3)cc12 | inactive: -0.239% |  |
| CCCC(=O)Nc1cccc(-c2cn3cccnc3n2)c1 | inactive: 4.87% |  |
| Cc1ccc(CNc2ncnc3c2c(-c2ccccc2)cn3-c2ccccc2)cc1 | inactive: -2.81% |  |
| CCOC(=O)c1ccc(NS(=O)(=O)c2ccc3c(c2)OCCO3)cc1 | inactive: -6.07% |  |
| CCOc1ccc(NC(=O)C2CCN(S(=O)(=O)c3c(C)noc3/C=C/c3c(C)cc(C)cc3C)CC2)cc1 | inactive: -0.148% |  |
| COc1ccc(CNC(=O)CCCn2c(=O)c3cccn3c3ccc(F)cc32)cc1OC | inactive: -0.229% |  |
| O=C(Nc1ccc(Cl)c(C(F)(F)F)c1)c1ccc2c(c1)CCN2S(=O)(=O)c1ccccc1 |  | active: 22.4 µM |
| COc1ccc(NC(=O)CN2C(=O)CSc3ccc(S(=O)(=O)N(C)C)cc32)cc1Cl | inactive: -21.4% |  |
| COc1ccc(NC(=O)C2CCN(C(=O)N3CCOc4ccccc43)CC2)cc1 | inactive: -3.65% |  |

| SMILES | activity change, negative = cytotoxicity | Potency |
| --- | --- | --- |
| Cc1ccccc1Cn1nnc2c(=O)[nH]c(C3CCN(C(=O)c4ccccc4Cl)CC3)nc21 | inactive: -4.23% |  |
| COc1ccc(NC(=O)N2CCN(S(=O)(=O)c3ccc4c(ccn4C)c3)CC2)cc1OC | inactive: 7.33% |  |
| CCC1CN(C(=O)NCc2ccccc2)c2cc(C)ccc2O1 (stereo unspecified) | inactive: 14.3% |  |
| COCCCNC(=O)C(C)n1c2ccccc2c2cnn(C)c(=O)c21 (stereo unspecified) | inactive: 5.84% |  |
| COc1ccc(-c2noc(N3CCC(C(=O)Nc4ccc(OC)c(OC)c4)CC3)n2)cc1 | inactive: -4.42% |  |
| O=c1c2cc3c(cc2n(Cc2ccccc2)c(=O)n1Cc1nc(-c2ccccc2)no1)OCO3 | inactive: 5.35% |  |
| Cc1ccc(-c2cn3nc(N4CCCC(C(=O)NCc5ccc(F)cc5)C4)sc3n2)cc1 (stereo unspecified) | inactive: 13.3% |  |
| COc1ccc2cc(CNc3ccc(C)cc3)c(=O)n(CC(=O)Nc3ccc(C)cc3Cl)c2c1 | inactive: -1.27% |  |
| CCN1CCSc2ccc(C(=O)NCc3cccc(Br)c3)cc21 | inactive: 3.32% |  |
| CCCCOc1ccccc1C(=O)N(Cc1sccc1C)C1CCS(=O)(=O)C1 (stereo unspecified) | inactive: -5.12% |  |
| Cc1ccc2nc(CN3CCN(S(=O)(=O)c4ccc(C(C)C)cc4)CC3)oc2c1 | inactive: -14.4% |  |
| COC(=O)c1ccc(NC(=O)CCn2cnnn2)c(C)c1 | inactive: 4.47% |  |
| Cc1cc(C)cc(NC(=O)Cn2c(=O)n(-c3ccc(C)c(C)c3)c(=O)c3oc4ccccc4c32)c1 | inactive: 0.66% |  |
| COc1ccc(N2CCN(Cc3nc4c(c(=O)n(C)c(=O)n4C)n3C(C)C)CC2)cc1 | inactive: -11.9% |  |
| Cc1ccc(-n2c(CCC(=O)O)ccc2-c2cccs2)cc1Cl | inactive: 0.467% |  |
| O=C(c1ccco1)N(Cc1cccs1)c1ccc(F)cc1 | inactive: -0.167% |  |
| Cc1cc(O)c(C(c2ccccc2)N2CCN(c3ccc(F)cc3)CC2)c(=O)n1Cc1ccco1 (stereo unspecified) | inactive: 1.08% |  |
| COc1ccc(CNC(=O)c2sc3nc[nH]c(=O)c3c2C)cc1 | inactive: 2.39% |  |
| CCOc1ccccc1N1CC(c2nc3ccccc3n2CCCOc2ccc(OC)cc2)CC1=O (stereo unspecified) | inactive: 0.383% |  |
| COc1cccc(CNC(=O)c2ccc(-n3c(C)cc4c3CCCC4)cc2)c1 | inactive: -18.2% |  |
| Cc1noc(-c2ccccc2OCC(=O)Nc2ccccc2[N+](=O)[O-])n1 | inactive: -4.25% |  |
| CC(C)OCCCN1C(=O)c2[nH]nc(-c3ccccc3O)c2C1c1ccccc1F (stereo unspecified) | inactive: 0.0218% |  |
| CCc1ccc(C(=O)CC2(O)C(=O)N(Cc3ccc(C)cc3)c3ccccc32)cc1 (stereo unspecified) | inactive: -21% |  |
| Cc1cccc(OCc2cc(=O)n3c4c(sc3n2)CCCC4)c1C | inactive: 10.1% |  |

From PubChem BioAssay AID1508642 (National Center for Advancing Translational Sciences (NCATS), 2021)
